Results: BigSolDB 2.1

CN(C)CCOC(c1ccccc1)c1ccccc1.Cl
solubility (mole fraction)
Conditions	278.15 K	283.15 K	288.15 K	293.15 K	298.15 K	303.15 K	308.15 K	313.15 K	318.15 K	323.15 K
in acetone	0.00151	0.00193	0.00223	0.00259	0.00302	0.00352	0.00408	0.00488	0.0055	0.00662
in ethanol	0.0217	0.0296	0.0392	0.0505	0.0633	0.0774	0.0924	0.108	0.12	0.137
in ethyl acetate	4.96e-05	8.31e-05	0.000141	0.000226	0.000309	0.000431	0.000604	0.000811	0.000986	0.00126
in methanol	0.122	0.138	0.147	0.156	0.162	0.167	0.173	0.18	0.191	0.195
